Here are results for 58 molecules from ChEMBL document CHEMBL1157539, “Thousands of chemical starting points for antimalarial lead identification” (Nature, 2010).

The full ranking holds about 13,000 compounds; the median of “IFI” is about 4, and the highest 2% start at about 17. The list shows a part of the results. Non-standard residues stand in square brackets, D forms with d. Residues, ends and D or L forms follow the SMILES beside them. *: point of attachment. Butanoyl(4-(4-HOPh)) = O=C(CCCc1ccc(O)cc1)*

The nature of the assay: GSK_TCMDC: Inhibition Frequency Index (IFI). The number of non-kinase HTS assays where a compound showed > 50 % inhibition, expressed as a percentage of the number of such assays in which the compound was tested (-0 is zero). The class given is functional.
Regarding `CC[C@H]1CN(Cc2ccco2)CC[C@H]1CCCc1ccnc2ccc(O)cc12`, the IFI came to 4.93%.

`C[C@H](N[C@H]1CCCc2c1[nH]c1ccc(Br)cc21)c1ccccc1` returned an IFI of 11.4%.

Turning to `O=C(NC1CCN(Cc2ccccc2)C1)c1ccc(Nc2ccc(Br)cc2)nc1` (stereo not drawn), the IFI was determined as 3.57%.

For the molecule `COc1ccc(Cn2c(N3CCN(S(=O)(=O)c4ccc(OC)cc4)CC3)nc3c2c(=O)n(CC2CC2)c(=O)n3CC2CC2)cc1`, the IFI worked out at 0.76%.

Molecule `O=[N+]([O-])c1cccc(-c2ccc(C=NNc3cc(N4CCCC4)nc(N4CCCC4)n3)o2)c1` registered an IFI of 0.75%.

Consider `CC(C)(C)COc1ccc2c(N)n[nH]c2c1`, for which the IFI was determined as 3.45%.

Regarding `CNC(=O)c1cc(S(=O)(=O)N2CCN(c3ccccn3)CC2)cs1`, the IFI was -0%.

The molecule `Cc1n[nH]c2ccc(-c3ccc4nccc(N5CCC(N)CC5)c4c3)cc12` registered an IFI of 10.8%.

For the molecule `CCc1cccc(NC(=O)/C=C/c2ccc3c(c2)CN(C)CC3)c1`, the IFI was found to be 0%.

`[O-][s+]1c(Cl)c(-c2ccc(Cl)cc2)c2ccc(Cl)cc21` (stereo not drawn) showed an IFI of 6.25%.

For the molecule `CCc1nc(N)nc(N)c1-c1ccc(F)cc1`, the IFI amounted to 2.14%.

As to `CCN(CC)C(=S)N/N=C1/C(=O)Nc2c(C)cccc21`, the IFI was determined as 4.41%.

With `CCc1ccc(C2=Nn3c(nnc3-c3cccs3)SC2)cc1`, the IFI was determined as 5.71%.

Molecule `N#Cc1ccc(N(CCOc2ccc(Cl)cc2)Cc2ccccc2C(F)(F)F)cc1C(F)(F)F` yielded an IFI of -0%.

`O=C(Nc1ccc(-c2cccc(-c3nc4cc(C(F)(F)F)ccc4[nH]3)c2)cc1)Nc1ccc(F)c(F)c1F` returned an IFI of 5.83%.

Turning to `O=C(Nc1cc(Cl)ccc1Cl)N[C@H]1CCN(CCCCCNC(=O)C2CC2c2ccc(Cl)c(Cl)c2)C1` (stereo partly drawn), the IFI worked out at 10.5%.

`CC(C)COc1ccc(Cl)cc1Cc1nc(-c2nc3ccc(CN4CCCCC4)cc3[nH]2)co1` came in with an IFI of 18.3%.

In the case of `O=C(Nc1ccc(Cl)c(Cl)c1)Nc1cc(C(F)(F)F)ccc1Cl`, the IFI was 5.71%.

As to `O=C(N[C@H]1CCN(Cc2ccc(OCCN3CCNCC3)c3ccccc23)C1)c1ccc(Cl)c(Cl)c1`, the IFI came out at 9.68%.

Regarding `O=C1COC2(CN1C1CCN(Cc3ccc(O)cc3Cl)C1)c1ccccc1-c1ccccc12` (stereo not drawn), the IFI came out at 8.53%.

Take `COC(=O)C(NC(=O)c1ccc(-c2ccc(-c3nc4ccccc4[nH]3)s2)cc1)c1ccc(O)cc1` (stereo not drawn): the IFI stood at 10.7%.

The molecule `COc1ccc(CN(C)CCCOc2ccc(NC(=O)C=Cc3ccc(C(C)(C)C)cc3)cc2)cc1OC` displayed an IFI of 9.57%.

Regarding `CC(C)(C)c1ccc(NC(=O)Nc2ccc(Cn3ncc(N4CCCNCC4)c(Cl)c3=O)cc2)cc1`, the IFI was found to be 11.8%.

`Cn1cc(C(=O)Nc2cccc(-c3cccc(-c4nc5cc(F)ccc5[nH]4)c3)c2)n(C)c1=O` registered an IFI of 3.7%.

Turning to `CN1CCCC(CN2CCN(Cc3cccc(-c4ccc(-c5nc6cc(C(F)(F)F)ccc6[nH]5)cc4)c3)CC2)C1` (stereo not drawn), the IFI worked out at 12.5%.

`FC(F)(F)c1ccc(-c2ccc(CNC3CCN(CCN4CCOCC4)CC3)cc2)cc1` yielded an IFI of 6.29%.

`COc1ccc(CN(C)CCCOc2ccc(NC(=O)c3cccc4c(=O)c5cccc(F)c5[nH]c34)cc2)cc1OC` displayed an IFI of 5.31%.

`CCC1CN(S(=O)(=O)c2ccc3c(c2)NC(=O)CC(=O)N3)c2cc(Cl)ccc2O1` (stereo not drawn) had an IFI of 1.43%.

`Cc1cc(N[C@@H](Cc2ccccc2)C(=O)NCCOc2ccccc2)nc(NCCc2ccccn2)n1` displayed an IFI of 4.55%.

Molecule `CCCCNC(=O)c1cc(CNC2CCCCC2)ccc1-c1cccc(CNCc2ccc(-c3ccccc3)cc2)c1` registered an IFI of 11.5%.

Take `CCN(CCO)CCc1cccc(Nc2nccc(-c3c(-c4ccc(NC(=O)N(CC)CC)cc4)nn4ccccc34)n2)c1`: the IFI was -0%.

`COc1ccc(-c2ccc(NC(=O)c3ccc(C#N)cc3)cc2)cc1CN(C)CCN(C)C` yielded an IFI of 3.96%.

For `COc1nc2c(CCN3CCC(NCc4ccc5c(c4)NCCO5)CC3)c(Cl)cnc2cc1F`, the IFI amounted to 9.03%.

In turn, `O=C(NCC(=O)N1CCC[C@H]1C(=O)O)[C@@H](Cc1ccccc1)NC(=O)[C@@H]1CCCN1C(=O)CCCc1ccc(O)cc1` ({Butanoyl(4-(4-HOPh))}-P[dF]GP-OH) yielded an IFI of 0.75%.

As for `CCC(=O)Oc1ccc(NC(=O)c2cccc(OC)c2)cc1`, the IFI turned out to be 1.42%.

`Cc1cc(Nc2cccc(C(F)(F)F)c2)nc(NCc2ccccc2)n1`: the IFI was found to be 10.2%.

`COc1ccc(CCN(C)CCOc2ccc(NC(=O)c3cccc4cc5ccccc5nc34)cc2)cc1OC` displayed an IFI of 6.67%.

`COc1cccc(NC(=O)c2cc([N+](=O)[O-])ccc2NC(=O)CN2CCc3ccccc3C2)c1` had an IFI of 3.65%.

Molecule `CCn1cc(C=C2Oc3c(ccc(O)c3CN3CCCCC3)C2=O)c2ccccc21` yielded an IFI of 5.26%.

`COCCCNC(=O)C1CCN(C(c2ccc(Cl)cc2)c2ccc(Cl)cc2)CC1` had an IFI of 2.13%.

In turn, `O=C(NC1CCN(CC2(c3ccccc3F)CCCC2)CC1)c1cc[nH]n1` showed an IFI of -0%.

The molecule `O=C(Nc1ccc(-c2cccc(-c3nc4ccccc4[nH]3)c2)cc1)Nc1ccc(F)c(F)c1F` had an IFI of 3.96%.

Turning to `O=C(CN1CCC(NCc2cnc(-c3ccc(Cl)cc3)[nH]2)CC1)N1CCc2ccccc21`, the IFI came to 0.88%.

As to `C#CC[C@@H](NC(N)=O)C(=O)O`, the IFI worked out at 0%.

`COc1ccc(COc2c(OC)cc(Cc3cnc(N)nc3N)cc2OC)cc1` returned an IFI of 0.71%.

`COc1cc(NC(=O)c2cccs2)c(OC)cc1NC(=O)Nc1cccc(Cl)c1` returned an IFI of 9.68%.

As for `Cc1[nH]cc(Br)c(=O)c1-c1ccc(Oc2ccc(OC(F)(F)F)cc2)cc1`, the IFI was found to be 4.5%.

The molecule `O=C(Nc1ccccc1)N(Cc1ccc(-c2cccc(CNCc3ccc4c(c3)OCO4)c2)cc1)C1CCN(Cc2ccccc2)CC1` yielded an IFI of 7.25%.

`CCN(CC)/C(=N/C(=N)NCc1ccc(Cl)cc1Cl)NCCCCCCN/C(=N\C(=N)NCc1ccc(Cl)cc1Cl)N(CC)CC`: the IFI is 14.6%.

`O=[N+]([O-])c1ccccc1C=NN=c1cc[nH]c2ccccc12`: the IFI was found to be 1.48%.

In turn, `CC1(C)NC(N)=NC(=N)N1OCCCc1cc(Cl)c(Cl)cc1Cl` displayed an IFI of 7.09%.

In the case of `Clc1ccc2c(NCCNc3ccnc4cc(Cl)ccc34)ccnc2c1`, the IFI worked out at 0.74%.

`Oc1ccc2ccccc2c1CNCCC1CCCCC1` showed an IFI of 2.96%.

`O=C(NCC1CCCCC1)c1cc(=O)c2ccccc2o1` yielded an IFI of 0%.

Molecule `O=C(Nc1ccc(Cl)cc1)c1cc(Cl)ccc1NC(=O)C1CCc2ccccc2O1` (stereo not drawn) had an IFI of -0%.

Regarding `Fc1ccc2[nH]c(-c3ccc(-c4ccc(CN5CCC(CCN6CCCCC6)CC5)cc4)cc3)nc2c1`, the IFI is 8.22%.

For `O=C(Nc1cccc(Cl)c1Cl)N1CCc2cc3nccc(N4CCN5CCC[C@H]5C4)c3cc21`, the IFI stood at 4.93%.

Take `Nc1ccc(-c2nc3cc(-c4ccc5[nH]c(-c6ccc(N)cc6)nc5c4)ccc3[nH]2)cc1`: the IFI came to 7.25%.
